Source: US5491135A (priority 1993, dated 1996)

Test system: DHPG resistant HCMV
Assay: microbe, parasite or virus in culture
Procedure: These experiments were performed to confirm the in vitro efficacy of the PALA at a concentration of 10 μg/ml during HCMV infection. In vitro infection on Hs68 cell monolayers and efficacy evaluations were performed for the following HCMV virus isolates: [1] AD169, a standard laboratory cytomegalovirus strain; 2] a DHPG resistant HCMV isolate (Thymidine kinase resistant DHPG; […] . This study also evaluated the reduction in HCMV titers during active suppression with the experimental drug and with DHPG.
10^4 PFU/ml HCMV of either: [1] strain AD 169; [2] DHPG resistant HCMV; or [3] the recently isolated clinical HCMV strain characterized as described above was inoculated onto confluent Hs68 cell monolayers (35 mm culture dishes) and adsorbed to the monolayers for 1 hour at 37° C. The inoculum was aspirated and medium containing the experimental drug or DHPG, or no drug in the medium was added to the HCMV-inoculated monolayer. Medium containing the appropriate drug additives was changed daily. At 24 hour intervals, from day 1 through day 7 PI, the HCMV-inoculated drug-treated monolayers were handled as follows: The supernatant containing cell-free virus was removed from the cells and the titer of HCMV cell-free virus in the supernatant was determined by standard plaque assay. The cell monolayer was washed with HBSS to remove residual drug, and the cells harvested by scraping. The cells were sonicated and centrifuged to pellet cell debris. The titer of the cell-free HCMV released from the infected cell monolayer was determined. The efficacy of the drug was represented as reduction in HCMV PFU/ml compared to non-drug-treated HCMV PFU/ml and to DHPG HCMV inhibition.

Structure (SMILES): O=C(O)C[C@H](NC(=O)CP(=O)(O)O)C(=O)O [PALA]
- log reduction at 10 µg/mL (Human betaherpesvirus 5, Hs68, read-out: viral yield reduction): 2 to 3
- Cell associated HCMV titer (day 0 PI): 10^2 PFU/ml
- Cell free (supernatant) HCMV titer (day 0 PI): 10^5 PFU/ml
- Cell associated HCMV titer (day 1 PI): 10^3 PFU/ml
- Cell free (supernatant) HCMV titer (day 1 PI): 10^1 PFU/ml
- Cell associated HCMV titer (day 2 PI): 10^1 PFU/ml
- Cell free (supernatant) HCMV titer (day 2 PI): 10^1 PFU/ml
- Cell associated HCMV titer (day 3 PI): 10^1 PFU/ml
- Cell free (supernatant) HCMV titer (day 3 PI): 10^2 PFU/ml
- Cell associated HCMV titer (day 4 PI): 10^1 PFU/ml
- Cell free (supernatant) HCMV titer (day 4 PI): 10^2 PFU/ml
- Cell associated HCMV titer (day 5 PI): 0 PFU/ml
- Cell free (supernatant) HCMV titer (day 5 PI): 10^1 PFU/ml
- Cell associated HCMV titer (day 6 PI): 10^1 PFU/ml
- Cell associated HCMV titer (day 7 PI): 10^1 PFU/ml

Structure (SMILES): Nc1nc(O)c2ncn(COC(CO)CO)c2n1 [DHPG, reference compound]
- reduction of HCMV titer: not effective in reducing the titer of HCMV
- Cell associated HCMV titer (day 0 PI): 10^2 PFU/ml
- Cell free (supernatant) HCMV titer (day 0 PI): 10^5 PFU/ml
- Cell associated HCMV titer (day 1 PI): 10^3 PFU/ml
- Cell free (supernatant) HCMV titer (day 1 PI): 10^3 PFU/ml
- Cell associated HCMV titer (day 2 PI): 10^3 PFU/ml
- Cell free (supernatant) HCMV titer (day 2 PI): 10^4 PFU/ml
- Cell associated HCMV titer (day 3 PI): 10^5 PFU/ml
- Cell free (supernatant) HCMV titer (day 3 PI): 10^5 PFU/ml
- Cell associated HCMV titer (day 4 PI): 10^5 PFU/ml
- Cell free (supernatant) HCMV titer (day 4 PI): 10^5 PFU/ml
- Cell associated HCMV titer (day 5 PI): 10^4 PFU/ml
- Cell free (supernatant) HCMV titer (day 5 PI): 10^4 PFU/ml
- Cell associated HCMV titer (day 6 PI): 10^4 PFU/ml
- Cell associated HCMV titer (day 7 PI): 10^2 PFU/ml
